Over roughly 33,000 sequences, “E-score (-0.5 to 0.5)” has its median near -0.041; the highest 2% begin near 0.37. This is one part of the list.
What follows are sequences tested against T1, Ecm22 (UniProt Q05958) (assay: PBM E-score (8-mer binding enrichment) (E-score (-0.5 to 0.5)); higher = stronger / more preferred TF binding; most listed sequences are background and not binding sites). Conditions: protein concentration: 200 nM; construct: GST-full length.
T1 sequence: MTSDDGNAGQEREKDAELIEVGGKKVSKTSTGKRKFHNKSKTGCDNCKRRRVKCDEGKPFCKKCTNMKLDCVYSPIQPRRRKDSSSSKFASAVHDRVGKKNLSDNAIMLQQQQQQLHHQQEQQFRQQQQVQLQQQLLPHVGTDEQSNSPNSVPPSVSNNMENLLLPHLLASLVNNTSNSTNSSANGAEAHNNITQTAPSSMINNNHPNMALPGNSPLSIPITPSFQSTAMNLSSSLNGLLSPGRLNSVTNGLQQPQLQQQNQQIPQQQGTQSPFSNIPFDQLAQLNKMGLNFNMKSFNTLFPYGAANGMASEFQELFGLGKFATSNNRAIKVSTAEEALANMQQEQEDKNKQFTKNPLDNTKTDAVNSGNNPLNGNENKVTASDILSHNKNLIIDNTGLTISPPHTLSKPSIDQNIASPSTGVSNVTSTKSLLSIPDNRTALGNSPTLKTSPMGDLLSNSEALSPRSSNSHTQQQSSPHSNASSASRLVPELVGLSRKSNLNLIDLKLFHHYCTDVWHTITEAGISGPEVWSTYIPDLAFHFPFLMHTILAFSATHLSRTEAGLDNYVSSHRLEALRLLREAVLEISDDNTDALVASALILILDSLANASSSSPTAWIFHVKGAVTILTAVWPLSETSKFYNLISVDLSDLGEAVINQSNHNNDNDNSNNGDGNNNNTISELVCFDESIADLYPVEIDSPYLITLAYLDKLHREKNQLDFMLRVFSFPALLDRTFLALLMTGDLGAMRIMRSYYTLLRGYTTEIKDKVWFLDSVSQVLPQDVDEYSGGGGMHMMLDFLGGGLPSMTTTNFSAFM
In short: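 Universal all-10-mer Agilent arrays, double-stranded by primer extension on fresh or once-stripped slides, were probed with about 100-200 nM GST-tagged yeast transcription factors made by PURExpress. Fluorescent anti-GST detected bound protein, and masliner normalised the scans. E-scores from the Universal PBM Analysis Suite were given to each ungapped eight-base word pooled with its reverse complement.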

Row | Sequence | PBM E-score
1 | ACGTGATC | -0.0275
2 | ATGTTCGG | 0.0114
3 | CAAACATA | -0.11
4 | AGACCAAA | -0.168
5 | CTATACTA | 0.0227
6 | AACAGTTG | -0.248
7 | ACCCGCCT | 0.0416
8 | ATTAGCGC | 0.027
9 | AAGGACTC | -0.09
10 | AAACGTAG | 0.151
11 | AGTGAGGG | -0.195
12 | CGGAAACG | 0.269
13 | CTCCAGTC | -0.197
14 | ACCTTTTG | 0.00019
15 | ACGGCATA | 0.245
16 | ATCCACTC | 0.0823
17 | TCGAGCCA | -0.126
18 | GTGTCTGA | -0.122
19 | AGTGGCGA | -0.00564
20 | GCAACATA | 0.0381
21 | CGGAAGCC | 0.0166
22 | GCGAAGAA | 0.162
23 | GTGTCCTA | -0.0163
24 | ATTCCACG | -0.133
25 | TGACACCA | -0.239

Row | Sequence | PBM E-score
26 | GGCGGCAA | -0.151
27 | ATGGCCGA | -0.0391
28 | GCCTAAAC | 0.142
29 | CGGCCTGC | -0.21
30 | TCGGGTAA | 0.236
31 | AGCGCGTG | 0.101
32 | GCGGAGAC | 0.0787
33 | AGTAGTGC | -0.236
34 | AACCGCGA | -8e-05
35 | AGGGCGAC | -0.257
36 | GGGATGAC | -0.0444
37 | GAACATAA | 0.0481
38 | CGTCATAG | 0.00517
39 | CCAGCTGG | 0.202
40 | TCACCGCA | -0.15
41 | AGGCCCAC | -0.256
42 | AAGCCGAC | 0.00835
43 | AACTTGGA | -0.0614
44 | CCACCTCC | -0.353
45 | ACTTCCGA | 0.0755
46 | ACCGTCAA | 0.0306
47 | GAATACGC | 0.152
48 | CGTTCAGC | 0.36
49 | ATTTGAGA | -0.0201
50 | ACGGCGTA | 0.198

Row | Sequence | PBM E-score
51 | GTGTTCTA | 0.0698
52 | AAAAGTAT | -0.00263
53 | AAGGAACC | 0.0815
54 | AGAAGTGC | -0.0651
55 | AATCAACC | -0.113
56 | AGCAAGCT | -0.25
57 | CTAAGAGC | 0.0418
58 | AACCTCGA | -0.126
59 | ACTCACCA | -0.199
60 | ACGCTGAG | -0.0403
61 | AAGACCCC | -0.162
62 | AAAATACC | 0.0602
63 | CGAATCAC | 0.194
64 | TAATGGAA | -0.121
65 | CTTTTCTA | -0.128
66 | ACGATGAT | 0.326
67 | AGGTGGAT | -0.0473
68 | ATCAGTTA | 0.162
69 | TAGACTGA | -0.16
70 | CTTCTAAA | -0.0244
71 | GTTCGGCA | -0.0392
72 | CGATCCAG | 0.0246
73 | ATAAAAAA | -0.101
74 | CGTGGCGA | 0.0345
75 | TCCGCACA | -0.0184

Row | Sequence | PBM E-score
76 | CACTCCTA | -0.237
77 | GGGTACTA | 0.0757
78 | AACGTTAG | 0.0578
79 | CGGTTCAC | -0.119
80 | CTAAATTC | -0.0281
81 | GACTAAGA | -0.0206
82 | AAGCGGAT | 0.026
83 | AAGACGTA | 0.146
84 | ATGAGGTA | -0.0168
85 | AGGTGCCC | -0.11
86 | CAGGATAG | 0.101
87 | ATGAACAT | 0.0278
88 | CAAACTAG | -0.142
89 | AGAAAGAG | -0.24
90 | ATCTTGGC | -0.115
91 | GAACAGTC | 0.0856
92 | CCCGTTTC | 0.216
93 | ATCTTTCC | -0.129
94 | ATGTGTGA | -0.203
95 | GATACGTA | 0.253
96 | AAGTAATC | -0.0689
97 | CCATGCCA | -0.205
98 | ATTCTCGC | 0.0862
99 | CAAGGTCA | -0.0865
100 | AGTGAAAG | -0.174

Row | Sequence | PBM E-score
101 | AAGGGCGA | -0.102
102 | AGGAGCTG | -0.288
103 | ACAGGGCG | -0.00222
104 | CACACTCC | -0.172
105 | TCCAGGGA | -0.173
106 | ATCCCGTG | 0.137
107 | AACATATC | 0.165
108 | CGGGAGAC | -0.119
109 | GCTCGGGA | 0.179
110 | GGCATGGA | -0.107
111 | ATCCATTG | -0.159
112 | AGCGCCAG | -0.0152
113 | CTGAATGC | -0.172
114 | CCTGTCAA | 0.0138
115 | ACTCAGGC | -0.193
116 | GTTATGTA | -0.0598
117 | AGCACCCT | -0.189
118 | GCCCTGCA | -0.236
119 | CGGCTGTA | -0.0942
120 | CTCCTGAA | -0.0638
121 | AAGATACC | -0.121
122 | AACCGAAG | 0.201
123 | AGACGTAA | -0.0943
124 | GGATAGAA | 0.0638
125 | CCTGCGAG | -0.0299

Row | Sequence | PBM E-score
126 | GCTAGACA | -0.128
127 | ACAGGCTA | -0.127
128 | ACCGAGAT | 0.178
129 | TGATTAAA | 0.044
130 | ATTTTAAG | -0.0605
131 | AGGTAACG | 0.107
132 | AAGGGCGT | 0.027
133 | CATTTTCG | 0.105
134 | CACTCTCG | 0.174
135 | CGCCCAAG | -0.204
136 | TCGAATAA | 0.192
137 | CCAGACAC | -0.00807
138 | CTCGGTCC | 0.336
139 | CATTACCC | -0.22
140 | CGTGATAG | 0.007
141 | CGGTTACA | 0.114
142 | CTAAACTA | -0.229
143 | CATCGCCC | -0.0849
144 | CTGACCAG | -0.133
145 | ATAGACGG | -0.0266
146 | AGCGAGAG | 0.236
147 | AGTAGAGG | -0.146
148 | GCCACGAC | 0.0782
149 | AGTTACGC | 0.071
150 | TAACTGTA | -0.0166

Row | Sequence | PBM E-score
151 | ATTGGAAC | 0.0587
152 | AATGACCT | -0.159
153 | CCATGGAA | -0.178
154 | GTGTGGAA | 0.0185
155 | CTCTGTTA | -0.0575
156 | CTACATCA | -0.27
157 | AGGTGATG | -0.259
158 | GAAAGGAA | -0.0254
159 | TAGTATCA | 0.0903
160 | GCACTGTA | 0.101
161 | CTCTAATA | -0.211
162 | ACCTCGTG | 0.251
163 | AACAGCCA | -0.0145
164 | ACGACCGG | 0.23
165 | AAACTGAA | -0.0929
166 | AAGGGTTC | -0.134
167 | ACTTATTG | -0.192
168 | ATTATGTG | 0.0218
169 | ACTTCGCC | 0.0257
170 | ATGTCGTC | 0.0394
171 | GGGCCTAA | -0.249
172 | AAGGATAC | -0.0638
173 | CGAGTTCA | 0.0788
174 | CCACGATA | 0.0166
175 | CCTTTACA | -0.184

Row | Sequence | PBM E-score
176 | CATCCGTC | 0.0509
177 | CGACAATA | 0.22
178 | AGATTGCC | -0.29
179 | GTGATACA | -0.0214
180 | TCGCATAA | 0.388
181 | ATGCCTGA | -0.16
182 | ATTAGCCC | -0.239
183 | CTCCCAAG | -0.199
184 | GTCCTTCA | -0.233
185 | AATACAGT | -0.0328
186 | CTCACGTA | 0.0688
187 | GACCTGCA | -0.146
188 | ACATACAA | -0.121
189 | CGAACGTC | 0.0995
190 | AAAGGGTT | -0.181
191 | AAGTTTAA | -0.226
192 | CACTCGGG | 0.0561
193 | CCCCAGCG | -0.175
194 | TACCCCAA | -0.149
195 | AAACCCTG | -0.126
196 | AAAATTAG | -0.169
197 | AGGTGCTG | -0.371
198 | CATACAAA | -0.0105
199 | AACGAGAC | 0.451
200 | ATTGCGCG | 0.148

Row | Sequence | PBM E-score
201 | GGAAGCAA | -0.105
202 | GACACGGC | -0.13
203 | ATCATTTA | 0.226
204 | CATAAGGC | -0.0707
205 | AAAGATAT | -0.0162
206 | ACCTAATC | 0.0827
207 | ATGTGGAG | -0.148
208 | GAATGCCC | -0.0918
209 | TCGCAGCA | 0.0212
210 | CCAGATTC | -0.309
211 | CACGCCCG | 0.059
212 | GAAACATC | -0.136
213 | ACGGTCAA | 0.297
214 | CCGATTCG | 0.206
215 | CCTGGGAA | -0.0511
216 | AACGATAA | 0.382
217 | CATTACGA | 0.289
218 | ATAACCCG | 0.0801
219 | CCTGATCA | -0.154

From the supplement of paper PMC3334620
